From PubChem BioAssay AID1030 (National Center for Advancing Translational Sciences (NCATS), 2008)
Where “and” joins values, the source holds several entries; their conditions need not be identical. Identical values can stand only once. The campaign covered roughly 220,000 compounds. About 16,000 (7.3%) were called active. Inconclusive results, whose numbers are uncertain, are shown with a selection of clear calls. Calls follow the shape of the dose curve; as a rule, active = well fitted inhibition curve with a large enough effect (not every such curve was filed as active); inconclusive = small, poorly fitted or top-dose-only effect, or another doubt; inactive = no such curve, though single readings can be large or run the other way. Potencies of inconclusive entries are doubtful fits and often do not repeat.

Target: Aldehyde dehydrogenase 1A1 (Homo sapiens) (UniProt P00352)
Assay: qHTS Assay for Inhibitors of Aldehyde Dehydrogenase 1 (ALDH1A1);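 as to activity, negative = inhibition: plate controls were no enzyme wells and a reference inhibitor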
Settings: Purified ALDH1A1, NADH fluorescence, propionaldehyde substrate; series mostly up to 75.3 µM
Potency is read from the fitted curve at half-maximal effect; tags tell the direction and shape of the fitted curve.

Chain of UniProt P00352 (P00352 whole entry, looked up): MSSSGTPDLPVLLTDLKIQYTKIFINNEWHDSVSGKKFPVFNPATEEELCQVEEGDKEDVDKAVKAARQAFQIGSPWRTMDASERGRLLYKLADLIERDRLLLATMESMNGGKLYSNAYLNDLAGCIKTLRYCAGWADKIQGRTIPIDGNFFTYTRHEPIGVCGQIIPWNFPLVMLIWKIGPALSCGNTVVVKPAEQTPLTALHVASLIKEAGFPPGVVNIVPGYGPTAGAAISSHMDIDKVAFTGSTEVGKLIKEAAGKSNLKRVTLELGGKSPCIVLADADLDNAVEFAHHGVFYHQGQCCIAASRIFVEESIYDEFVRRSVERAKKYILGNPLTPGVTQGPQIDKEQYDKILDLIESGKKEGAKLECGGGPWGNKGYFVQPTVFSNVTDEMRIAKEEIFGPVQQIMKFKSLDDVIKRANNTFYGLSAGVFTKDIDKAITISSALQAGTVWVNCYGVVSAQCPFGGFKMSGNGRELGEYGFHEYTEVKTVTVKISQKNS

Structure (SMILES) | Potency | activity, negative = inhibition
COC(=O)C1=CN(C(C)C)C=C(C(=O)OC)C1c1cccc(OC)c1 | inconclusive: 35.5 µM [inhibitor, partial curve] | 
O=C(CSCc1cccc(CSCC(=O)Nc2ccc3ccccc3c2)n1)Nc1ccc2ccccc2c1 | inconclusive: 25.1 µM [inhibitor, partial curve] | 
CCCCn1c(CCC)nc([N+](=O)[O-])c1Sc1ccc(Cl)cn1 | active: 7.08 µM | 
Nc1ccc(-c2nc3cc(N)ccc3s2)cc1 | inconclusive: 39.8 µM [inhibitor, single point] | 
Cc1cc(SCC(=O)c2ccc(Br)cc2)cc(C)[o+]1 | active: 3.16 µM | 
CCCOC(=O)c1ccc(-n2nnnc2SCC(=O)N2CCCCC2)cc1 | inconclusive: 22.4 µM [inhibitor, partial curve] | 
CCCCn1c(-c2ccsc2)nc2c1c(=O)[nH]c(=O)n2CCC | inconclusive: 20 µM [inhibitor, partial curve] | 
CC1(C)OC(=O)C(=CNc2ccc(F)cc2)C(=O)O1 | inconclusive: 8.91 µM [inhibitor, partial curve] | 
COc1cc(C(=O)NC(=S)NCc2ccco2)cc(OC)c1OC | active: 5.01 µM | 
O=S(=O)(NCCSCc1c(Cl)cccc1Cl)c1ccc2c(c1)OCCO2 | inconclusive: 25.1 µM [inhibitor, partial curve] | 
CCN(CC)C(=O)CN1C(=O)C(=O)c2ccccc21 | active: 0.02 µM | 
CCc1ccc(NC(=O)c2noc3c2CCCCC3)cc1 | inconclusive: 39.8 µM [inhibitor, single point] | 
CCCOc1ccc(-c2nn(-c3ccccc3)cc2/C=C2\SC(=S)N(C3CCS(=O)(=O)C3)C2=O)cc1 (configuration not stated) | inactive | 
COc1ccc(S(=O)(=O)N2CCOCC2)cc1NC(=O)c1ccccc1-c1ccc(C(F)(F)F)cc1 | inactive | 
c1ccc2c(c1)CCN(Cc1nnnn1Cc1ccc3c(c1)OCO3)C2 | inconclusive: 39.8 µM [inhibitor, single point] | 
COC(=O)NC(c1ccco1)C(C(C)=O)C(=O)OC (configuration not stated) |  | inactive: 3.66% [at 13.5 µM]
O=C(CSc1nnc(Cc2cccs2)n1C1CCCCC1)N1CCCc2ccccc21 | active: 3.55 µM | 
O=C(Nc1cccc(NC(=O)c2ccc(-c3ccc(Br)cc3)o2)c1)c1ccco1 | inconclusive: 37.7 µM [inhibitor, single point] | 
COCCNC(=O)/C(C#N)=C/c1cccc(/C=C(\C#N)C(=O)NCCOC)c1 | inconclusive: 28.2 µM [inhibitor, single point] | 
O=c1c(F)cn(C2CCCO2)c(=O)n1Cc1c(Cl)cccc1Cl (configuration not stated) | inactive | 
O=C(CSc1nnnn1-c1ccccc1)N1CCN(C(=O)c2ccco2)CC1 | inconclusive: 25.1 µM [inhibitor, single point] | 
COc1ccc(C2NC(=O)C(C#N)=C(S)N2c2ccc(C)cc2)cc1OC (configuration not stated) | active: 17.8 µM | 
COc1cc(C(=O)N2CCN(c3ccc([N+](=O)[O-])cc3)CC2)ccc1OCc1c(C)noc1C | inconclusive: 31.6 µM [inhibitor, single point] | 
CSc1ccc(S(=O)(=O)NCCOc2ccccc2C)cc1 | active: 12.6 µM | 

Structure (SMILES) | Potency | activity, negative = inhibition
CC(C)CCN1CCc2nc(COc3ccccc3)c3c(c2C1)COC(C)C3 (configuration not stated) |  | inactive: 6.89% [at 13.5 µM]
O=S(=O)(c1ccccc1)c1nc(-c2ccco2)oc1NCCCN1CCOCC1 | active: 8.91 µM | 
CCC(=O)c1ccc(N2CCN(C(=O)Cc3ccccc3)CC2)c(F)c1 | inconclusive: 25.1 µM [inhibitor, single point] | 
COC(=O)[C@@]1(Cc2ccccc2)[C@H]2c3cc(C(=O)N(C)C)n(Cc4ccsc4Br)c3C[C@H]2CN1C(=O)c1ccccc1 | inactive | 
COC(=O)c1c(NC(=O)C2CC=CCC2C(=O)O)sc(C)c1C (configuration not stated) | inconclusive: 8.91 µM [inhibitor, partial curve] | 
S=C(NC1CCCCC1)c1ccc2c(c1)OCO2 | inconclusive: 39.8 µM [inhibitor, single point] | 
Cc1nc2nc(C)c(CCC(=O)NCCCN3CCN(c4cccc(Cl)c4)CC3)c(C)n2n1 | inactive | 
Clc1ccc(CSc2nnc(-c3sccc3-n3cccc3)o2)cc1 | inconclusive: 39.8 µM [inhibitor, single point] | 
COC(=O)c1ccc(N=NNc2cccc(Br)c2)cc1 | inactive | 
COc1cccc(C(=O)Nc2nnc(-c3cccs3)s2)c1 | inconclusive: 28.2 µM [inhibitor, single point] | 
N#Cc1cc2c(nc1SCC(=O)Nc1sc3c(c1C#N)CCC3)CCCCC2 | inconclusive: 15.8 µM [inhibitor, partial curve] | 
COc1cccc(Nc2ncnc3c2cnn3-c2cccc(C)c2)c1 | inconclusive: 39.8 µM [inhibitor, single point] | 
c1ccc(OCCSc2nnnn2-c2ccccc2)cc1 | active: 22.4 µM | 
CCOC(=O)c1cnc(SC)nc1Oc1cccc(NC(=O)c2ccc(Cl)cc2)c1 | inactive | 
CCOC(=O)C(C)(C)N(Cc1cccc(C)c1)S(=O)(=O)c1ccc(Cl)c([N+](=O)[O-])c1 | inactive | 
CC(C)Oc1cccc(C(=O)NC(=S)Nc2ccc(Cl)c(C(=O)O)c2)c1 | inconclusive: 39.8 µM [inhibitor, single point] | 
O=C(Nc1ccc2oc(-c3ccccc3Cl)nc2c1)c1cncc(Br)c1 | inconclusive: 22.4 µM [inhibitor, partial curve] | 
Cc1cc(/C=C(/C#N)c2cccc(Cl)c2)c(C)n1C | inconclusive: 10 µM [inhibitor, partial curve] | 
Cc1cc(C)n(-c2nc(NCCO)c3c4c(sc3n2)CCCC4)n1 | inconclusive: 39.8 µM [inhibitor, single point] | 
Cc1nc2ccc3nc(NC(=O)c4ccc5c(c4)OCCO5)sc3c2s1 | inactive | 
CC(C)CCNC(=O)Cn1cc2c(n1)CCCCC2 | inactive | 
COc1cc(C(=O)Nc2nc(-c3cc(C)ccc3C)c(C)s2)ccc1OCC(=O)Nc1ccc(F)cc1 | inconclusive: 44.7 µM [inhibitor, single point] | 
NCCc1nc(-c2ccccc2)cs1 | inactive | 
O=C(CCN1C(=O)c2ccccc2C1=O)Nc1sc2c(c1C(=O)NCc1ccco1)CCCC2 | inconclusive: 3.16 µM [inhibitor, full curve] | 

Structure (SMILES) | Potency | activity, negative = inhibition
O=C(O)c1nn(-c2ccccc2)nc1-c1nn(-c2ccccc2)nc1C(=O)O | inconclusive: 8.91 µM [inhibitor, single point] | 
CN1C(=O)c2ccc(NC(=S)NC(=O)C(C)(C)C)cc2C1=O | inconclusive: 35.5 µM [inhibitor, single point] | 
CCC(=O)Nc1nonc1-c1nc2ccccc2n1N(C(=O)CC)C(=O)CC | inconclusive: 35.5 µM [inhibitor, partial curve] | 
N/C(=N\OC(=O)c1ccc2c(c1)OCO2)c1ccc(Cl)cc1 | inactive | 
CC(C)n1c(=S)[nH]c2c1c(=O)[nH]c(=O)n2C | active: 2 µM | 
CCCCC1(C)NC(=O)c2c(C)sc(C(=O)OCC)c2N1 (configuration not stated) | inconclusive: 28.2 µM [inhibitor, partial curve] | 
CC1(C)OC(=O)C(=Cc2ccc(-c3ccc(S(N)(=O)=O)cc3)o2)C(=O)O1 | inactive | 
Cc1cccc(C)c1-n1c(C)cc(/C=C2\NC(=O)NC2=O)c1C | active: 15.8 µM | 
O=C(c1ccccc1)N1CCN(c2ccc([N+](=O)[O-])c(NCc3ccco3)c2)CC1 | inconclusive: 8.91 µM [inhibitor, partial curve] | 
NC(=O)Cn1c(=O)n(-c2ccccc2)c(=O)c2oc3ccccc3c21 | inconclusive: 39.8 µM [inhibitor, single point] | 
O=C(N1CCCCCC1)N1CCN(C(=O)N2CCCCC2)CC1 | inconclusive: 25.1 µM [inhibitor, partial curve] | 
CC(C)c1cccc2nc3c(c([Si](C)(C)C)c12)Cn1c-3cccc1=O | inconclusive: 28.2 µM [inhibitor, partial curve] | 
CC(C)(C)c1ccc(OC2C(O)COC2/C=C/C#Cc2ccccc2)cc1 (configuration not stated) | inconclusive: 3.55 µM [inhibitor, single point] and inconclusive: 6.31 µM [inhibitor, single point] | 
Cc1ccccc1OCc1nnc(SCC(=O)Nc2ccc3nc(SCC(=O)Nc4ccccc4)sc3c2)n1C | active: 12.6 µM | 
O=C(CCCSc1nc(-c2ccco2)cc(C(F)(F)F)n1)Nc1ccc2c(c1)OCO2 | active: 15.8 µM | 
COCCOC(=O)C(C#N)c1nc2ccccc2nc1N1CCN(Cc2ccccc2)CC1 (configuration not stated) | inconclusive: 22.4 µM [inhibitor, partial curve] | 
CCOC(=O)c1ccc(N2C(=O)c3n[nH]c(C)c3C2c2ccc(OC)cc2)cc1 (configuration not stated) | inactive | 
O=C(NNS(=O)(=O)c1ccc(Br)cc1)NC1CCCCC1 | inconclusive: 44.7 µM [inhibitor, single point] | 
CC(C)c1ccc(NC(=O)CNS(=O)(=O)c2ccc(F)cc2)cc1 | inactive | 
CC(c1ccccc1)N1CCn2c(nc3cc(NC(=O)c4cccs4)ccc32)C1 (configuration not stated) | inconclusive: 25.1 µM [inhibitor, partial curve] | 
O=C(NNC(=O)C1CCCN(c2ncccn2)C1)c1ccncc1 (configuration not stated) | inactive | 
CCOc1ccccc1NC(=O)CSc1nnnn1-c1ccccc1 | active: 15.8 µM | 
CCc1ccccc1NS(=O)(=O)c1ccc2[nH]cc(C(=O)NCc3ccco3)c(=O)c2c1 | inactive | 
CCc1nnc(NS(=O)(=O)c2ccc(NC(=S)NC(=O)c3ccc(Br)cc3)cc2)s1 | inactive | 
